Read counts are not given, so values of variants with three or more changes are uncertain.
B1: CPEB3 Ribozyme (parent)
chain: UAACAGGGGGCCACAGCAGAAGCGUUCACGUCGCAGCCCCUGUCAGAUUCUGGUGAAUCUGCGAAUUCUGCUGUAUAUCUC

Variants of: B1
Assay: self-cleavage, relative activity (ratio to wild type); higher = more cleavage; in vitro, sequencing
How it was run: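 For each CPEB3 ribozyme variant, relative activity is its cleaved/total read fraction divided by the unmutated ribozyme's. Barcoded error-prone PCR libraries were transcribed by T7 RNA polymerase (5 hours, 37°C) and held in DNase I for 15 min before an EDTA stop, with cleavage occurring throughout. Template-switching reverse transcription and Illumina sequencing were used to read the RNAs. A 5-read minimum applied, and results are the mean of three batches.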

Row | Variant | self-cleavage
1 | UAACAGGGGGCCACAGCUAAAGCGUUCACGUCUCAGCCCCUGUCAGAUUCUGGUGAAUCUGCGAAUUCUGCAGUAUAUCUC [A18U G19A G33U U72A] | 0.03
2 | UAACAGGGGGCCACAGCUUAAGCGUUCACGUCGCAGCCCCUGUCUGAUUCUGGUGAAUCUCCGAAAUCUGCUGUAUAUCUC [A18U G19U A45U G61C U66A] | 0.12
3 | UAACAGGGGGCCACAGCUUAAGCGUUCACGUCGCAGCCCCUGUCAGAUUCUGGUGAAACUGCGAAUUCUGCUGUAUAUCUC [A18U G19U U58A] | 0.17
4 | UAACAGGGGGCCACAGCUGAAACGUUCACGUUGCAGCCCCUGUCAGAUUCUGGUGAAUCCGCGAAUCCUGCUGUUGAUCUC [A18U G22A C32U U60C U67C A75U U76G] | 0.04
5 | UAACAGGGGGCCACAGCUGAAUCGUUCACGUCGCAGCCCCUGUCAGGUUCUGGCGGAUCUGCGAAUUCUGCUGUGUAUCUC [A18U G22U A47G U54C A56G A75G] | 0.09
6 | UAACAGGGGGCCACAGCUGAAUCGAUCACGUCGCAGCCCCAGUCAGAUUCUGGUGAAUCUGCGAAUUCUGCUGUCUAUCUC [A18U G22U U25A U41A A75C] | 0.08
7 | UAACAGGGGGCCACAGCUGAAGCAUUCACGACGCAGCCCCUGUCAGAUUGUGGUGGAUCUGCGAAUUCUGCUGUAUAUCUC [A18U G24A U31A C50G A56G] | 0.08
8 | UAACAGGGGGCCACAGCUGAAGCAUUCACGUCGCAGCCCCUGUCAGACUCUGGUGAAUCUGCUGAUUCUGCUGUAUAUCUC [A18U G24A U48C G63U A64G] | 0.15
9 | UAACAGGGGGCCACAGCUGAAGCUGUCACGUCGCAGCCCCUGUCUGAUUCUGGUGAAACUGCGAACUCAGCUGUAUAUCUC [A18U G24U U25G A45U U58A U66C U69A] | 0.03
10 | UAACAGGGGGCCACAGCUGAAGCGUUCACCUCGCAGCCCCUGUCAGAUUCUGGUGAAUCUGCGAAUUCUGCUGUAUAUCGC [A18U G30C U80G] | 0.43
11 | UAACAGGGGGCCACAGCUGAAGCGUUCACGUCACAGCCCCAGUCAGAUUCUGGCGAAUCUGCGAAUUCUGCUGUAUAUCUC [A18U G33A U41A U54C] | 0.12
12 | UAACAGGGGGCCACAGCUGAAGCGUUCACGUCCCAGCCCCUGACAGAUUCUGGUGGAUCUGCGAAUUCUGCUGUAUAUCUA [A18U G33C U43A A56G C81A] | 0.26
13 | UAACAGGGGGCCACAGCUGAAGCGUUCACGUCGCAACCCCUGUCAGAAUCCGGUGAAUCUGCGAAUUCUGCUGUAUAUCUC [A18U G36A U48A U51C] | 0.05
14 | UAACAGGGGGCCACAGCUGAAGCGUUCACGUCGCAUCCCCUGUCAGAUACUGGUGUAUCUGCGAAUUCUGCUGUAUAUCCC [A18U G36U U49A A56U U80C] | 0.45
15 | UAACAGGGGGCCACAGCUGAAGCGUUCACGUCGCAGCCCCUGUCAGAUUCUGAUGAAUCUGCGAUUUCUGCUGUAUAUCUC [A18U G53A A65U] | 0.12
16 | UAACAGGGGGCCACAGCUGAAGCGUUCACGUCGCAGCCCCUGUCAGAUUCUGAUGAACCUGCGAAUUCUGCAGUAUAUCUC [A18U G53A U58C U72A] | 0.15
17 | UAACAGGGGGCCACAGCUGAAGCGUUCACGUCGCAGCCCCUGUCAGAUUCUGGUAAAUCUGCAAAUUCUGCUGUGUCUCUC [A18U G55A G63A A75G A77C] | 0.17

Row | Variant | self-cleavage
18 | UAACAGGGGGCCACAGCUGAAGCGUUCACGUCGCAGCCCCUGUCAGAUUCUGGUGAAUCUGCGAAUUCUACCGUAUAUCUC [A18U G70A U72C] | 0.4
19 | UAACAGGGGGCCACAGCUGAAGCGUUCACGUCGCAGCCCCUGUCAGAUUCUGGUGAAUCUGCGAAUUCUCCUGUAUAUCGC [A18U G70C U80G] | 0.14
20 | UAACAGGGGGCCACAGCUGAAGCGAUCACGUCGCAGCCCCUGUCUGAUUCUGGCGAAUCUGCGAAUUCUGCUGUAUAUCUC [A18U U25A A45U U54C] | 0.05
21 | UAACAGGGGGCCACAGCUGAAGCGAUCACGUCGCAGUCCCUGUCAGAUUCUGGUGAAUCUGCGAAUUCCGCUGUAUAUCUC [A18U U25A C37U U69C] | 0.06
22 | UAACAGGGGGCCACAGCUGAAGCGCUCGCGUCGCGGCCCCUGUCAGACUCCGGUGAAUCUGCGAACUCUGCUGUAUAUCUC [A18U U25C A28G A35G U48C U51C U66C] | 0.11
23 | UAACAGGGGGCCACAGCUGAAGCGCUCACGUCGCGGCCCCCGUCAGAUUCUGGUGAAUCUGCGAAUUCUGCUGUACGUCUC [A18U U25C A35G U41C U76C A77G] | 0.05
24 | UAACAGGGGGCCACAGCUGAAGCGCUCACGUCGCUGCCCCUGUCAGAUUCUGGUGAAUCUGCGAAUUCCGAUGUAUAUCUC [A18U U25C A35U U69C C71A] | 0.09
25 | UAACAGGGGGCCACAGCUGAAGCGCUCACGUCGCAGCCCCUGUCGGGUUCUGGUGUAUCUGCGAAUUCUGCUGUAUAUCUC [A18U U25C A45G A47G A56U] | 0.1
26 | UAACAGGGGGCCACAGCUGAAGCGCUCACGUCGCAGCCCCUGUCGGAUUCUGGUGGAUCUGCGAAUUCUGCUGUAUAUCUC [A18U U25C A45G A56G] | 0.06
27 | UAACAGGGGGCCACAGCUGAAGCGCUCACGUCGCAGCCCCUGUCUGUUCCUGGCGAAUCUGCGGAUUCUGCUGUAUAUCUC [A18U U25C A45U A47U U49C U54C A64G] | 0.19
28 | UAACAGGGGGCCACAGCUGAAGCGCUCACGUCGCAGCCCCUGUCAGGUUCUGGUGAAUCUGCGAAUUCUGCUGUAUAUCUC [A18U U25C A47G] | 0.08
29 | UAACAGGGGGCCACAGCUGAAGCGCUCACGUCGCAGCCCCUGUCAGAUUCUGGUGAAUCUGCGAGCUCUGCUGUAUAUCUC [A18U U25C A65G U66C] | 0.27
30 | UAACAGGGGGCCACAGCUGAAGCGCUCACGUCGCAGCCCCUGUCAGAUUCUGGUGAAUGUGCGAGUUCUGCAGUAUAUCUC [A18U U25C C59G A65G U72A] | 0.06
31 | UAACAGGGGGCCACAGCUGAAGCGCUCACGUCGCAGCCCCUGUCAGAUUCUGGUGAAUCUGCGAAUUGUGCUGUAUAUCCC [A18U U25C C68G U80C] | 0.11
32 | UAACAGGGGGCCACAGCUGAAGCGCUCACGUCGCAGCCCCUGUCAAAUUCUGGUGAAUCUGCGAAUUCUGCUGUAUAUCUC [A18U U25C G46A] | 0.22
33 | UAACAGGGGGCCACAGCUGAAGCGCACACGUCGCAGACCCUGUCAGAUUCUGGUGAAUCUGCGAAUUCUGCUGUAAAUCCC [A18U U25C U26A C37A U76A U80C] | 0.24
34 | UAACAGGGGGCCACAGCUGAAGCGCGCACGUCGCAGCCCCUGUCAGAUUCUGGUGAAUCUGCGAAUUCUGCUGUAUAUCUC [A18U U25C U26G] | 0.33

From the RNAGym collection of RNA variant scans (doi:10.1093/nar/gkz1192)
